In the supplement of paper PMC3334620:
Whole data set: some 33,000 sequences, median “E-score (-0.5 to 0.5)” near -0.041, cut for the highest 2% near 0.37. The list shows a part of the results.

These sequences were tested against T1, Ecm22 (UniProt Q05958) (assay: PBM E-score (8-mer binding enrichment) (E-score (-0.5 to 0.5)); higher = stronger / more preferred TF binding; most listed sequences are background and not binding sites). Conditions: protein concentration: 200 nM; construct: GST-full length.
T1 sequence: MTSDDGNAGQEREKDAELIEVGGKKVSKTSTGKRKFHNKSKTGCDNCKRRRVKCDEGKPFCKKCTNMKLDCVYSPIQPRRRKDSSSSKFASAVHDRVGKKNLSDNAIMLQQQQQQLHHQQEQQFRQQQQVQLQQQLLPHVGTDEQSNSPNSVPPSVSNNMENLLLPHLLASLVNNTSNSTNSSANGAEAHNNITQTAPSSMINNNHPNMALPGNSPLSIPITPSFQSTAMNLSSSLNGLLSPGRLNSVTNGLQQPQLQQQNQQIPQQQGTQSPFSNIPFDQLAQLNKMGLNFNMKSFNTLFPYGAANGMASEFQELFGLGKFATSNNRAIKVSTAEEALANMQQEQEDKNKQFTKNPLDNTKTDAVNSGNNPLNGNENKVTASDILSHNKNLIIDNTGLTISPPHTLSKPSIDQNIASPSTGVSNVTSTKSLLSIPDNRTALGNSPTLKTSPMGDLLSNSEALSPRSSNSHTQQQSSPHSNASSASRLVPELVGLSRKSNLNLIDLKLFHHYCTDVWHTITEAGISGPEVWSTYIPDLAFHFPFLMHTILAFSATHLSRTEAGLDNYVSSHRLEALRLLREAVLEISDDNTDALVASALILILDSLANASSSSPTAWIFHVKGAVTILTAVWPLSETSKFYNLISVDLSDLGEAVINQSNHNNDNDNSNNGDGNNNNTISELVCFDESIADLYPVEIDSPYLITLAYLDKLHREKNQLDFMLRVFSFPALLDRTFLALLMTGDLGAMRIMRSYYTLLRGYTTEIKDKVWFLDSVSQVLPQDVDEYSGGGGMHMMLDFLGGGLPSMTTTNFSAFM
Procedure, shortened: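 Full-length yeast transcription factors or their DNA-binding domains, GST-tagged and expressed with PURExpress, were applied at about 100-200 nM to universal all-10-mer Agilent arrays. These arrays had been made double-stranded by primer extension on fresh or once-stripped slides. Detection used fluorescent anti-GST, normalisation used masliner, and E-scores for ungapped eight-base words pooled with reverse complements came from the Universal PBM Analysis Suite.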

| Sequence | PBM E-score |
| --- | --- |
| CTGTCCGA | 0.188 |
| CATATCCA | -0.0799 |
| AACAGGCT | -0.264 |
| CACAAGAC | -0.267 |
| ATGGATCA | -0.194 |
| AAGCCTGG | -0.279 |
| CCTGTGGC | -0.292 |
| GCGCTAGA | -0.0147 |
| TAACTCTA | -0.0706 |
| CAGAACAC | -0.0867 |
| AAGGTTCA | -0.0608 |
| TGGCTTAA | 0.0285 |
| TCGCTAGA | 0.0863 |
| AAGAGTAT | -0.113 |
| AGCACAGC | -0.0379 |
| AGGCCGAC | -0.106 |
| TTGGCCAA | -0.264 |
| AGCGAGCA | 0.293 |
| GTCGCCTA | -0.0445 |
| CCACGGAC | -0.22 |
| CGAGCCAA | 0.127 |
| CTCGCTCC | 0.405 |

| Sequence | PBM E-score |
| --- | --- |
| AAATCAAC | -0.088 |
| ACACCAGG | -0.301 |
| AGGTATTC | 0.145 |
| AATACGCA | 0.0707 |
| ACGCGGGC | 0.0621 |
| GTGGGACA | -0.142 |
| CAAGTCCC | -0.246 |
| CACTGAAA | 0.00804 |
| GACCGTAC | 0.362 |
| ATGTCCAC | -0.23 |
| ATCCTATA | 0.0709 |
| CGATAATC | 0.0251 |
| ACGTCACC | -0.0444 |
| AGCGGGTG | -0.186 |
| ACCTTCAC | -0.202 |
| ATATTATC | 0.0725 |
| GCAAGGGA | -0.0336 |
| GATTACAC | 0.0245 |
| AGTCGCTA | 0.109 |
| CATAGCCA | -0.207 |
| CTAGGCCC | -0.378 |
| GCTGCACC | 0.0458 |

| Sequence | PBM E-score |
| --- | --- |
| CGCATTAC | 0.179 |
| ATCTCATA | -0.0896 |
| AGAGCTTA | -0.112 |
| CTACCATC | -0.0677 |
| GAGGCCGC | -0.0873 |
| AACTGTAA | -0.0233 |
| CCCGGAAC | 0.0399 |
| CGGGCTTA | 0.00518 |
| ACCTCATC | -0.0924 |
| CGGACCCG | 0.21 |
| CGTAACTA | 0.152 |
| AAAAGAGC | -0.205 |
| AGTATATC | 0.122 |
| ATGTAGGA | -0.213 |
| ATCGACAT | 0.0673 |
| CGGTTTTC | 0.259 |
| CGTTCGGC | 0.147 |
| GGCTACCC | -0.232 |
| GGATCCGA | 0.0541 |
| GACATGTC | -0.286 |
| ATTATCTA | 0.0298 |
| AAAAAACA | -0.0926 |

| Sequence | PBM E-score |
| --- | --- |
| ACCCGGAC | -0.0639 |
| GTTATGCA | -0.29 |
| GAAGGCGA | -0.0853 |
| ATCATACC | 0.00527 |
| ATATACTA | 0.224 |
| CCTGCCTA | -0.111 |
| AGTTGTTG | -0.204 |
| CAGAGCGG | -0.273 |
| CCCGTGTA | -0.0132 |
| AAGAAACG | 0.284 |
| CCTGAGAA | -0.148 |
| TCAGTCGA | 0.0318 |
| CAAGACCA | -0.403 |
| AAGGAGGC | -0.319 |
| ATAGAATA | -0.094 |
| GTCTGCTA | -0.03 |
| CCCCCTCG | 0.12 |
| ACTTCTGC | -0.0623 |
| CATGACGC | -0.00544 |
| ATTATGGG | -0.271 |
